Experimental data from the RNAGym collection of RNA variant scans (doi:10.7554/elife.90254).
The source gives no read counts; variants with many changes may rest on few reads.

B1: LINE1-full (parent)
chain: UACGUAGGUGGUUUUCCCCUGAUAGUGCUAAGGGGGCCUGGAAGUUUGGACUGGGCAGAGCUCAACACAGCGUGGCAAAGUGGCUGUGGCUAGACUGCCUCUCUGGAUUCCUCGUCACUCAGCAGGGCAUCUCUGAGAGAAAUGCC

Variants of: B1
Test: self-cleavage, relative activity (ratio to wild type); higher = more cleavage; in vitro, sequencing; the parent is a self-cleaving ribozyme

Row | Variant | self-cleavage
1 | U12C U62C U100C | 0
2 | A2U C28U A107G A136G | 1.02
3 | U62C U115C A141G | 0.88
4 | U112C C113A C118U | 0.33
5 | U13C G34U U46C U62A A64G U73C | 0
6 | U14C A57U A79G U85A A138G | 0.14
7 | A22U G32A A67G | 0.76
8 | U47A U85C U132C | 0.21
9 | U15A A22U A77G A94G U108C | 0
10 | A22G U52C A69U | 0.05
11 | A57G G88U U102C U134A | 0.03
12 | U12C G40A U46C A50U A59G A69G U91C | 1.53
13 | C76U U119A U134C | 2.44
14 | A59G U108C U132A A142G G144U | 0.61
15 | U1C U20C U62C A140G | 0
16 | A2G A22G G40A A78G | 0.82
17 | U20C U87A U130C A136G | 0.1
18 | G10A U39C U81A | 1.52
19 | U14C U26C U39C A79G | 0
20 | G32A A79U U102C | 1.82
21 | U13G A22U A42G A107G A141G | 0.66
22 | A67U U96A U109C G139U | 0.02
23 | U9C U13C G54A | 0.62
24 | U47C U87A U104A | 0.03

Row | Variant | self-cleavage
25 | A30U A42G A65G | 0
26 | C38U U45C U47A U62C U96C G106A G122A A141G | 0
27 | U46A A64G G125A | 0.1
28 | A57G U62C G106U A117U A140G | 0.05
29 | A43C U87A A129G | 0
30 | U20C A65G U96C A138G A142U | 0
31 | C18U U23C U39C A57U | 0.2
32 | U12G A22G U23A | 1.15
33 | A2G U100A U102C | 0.19
34 | U20C U47C C146A | 0.29
35 | A2G G8U A42U U115C A136U | 0.88
36 | U39A A50G U62C C63U U100C U134A | 0.2
37 | C19U A42U U87C C113U | 0.03
38 | U14C A69G U100C | 0
39 | U87A A129G A138C | 0.07
40 | U73A A129U A138G | 2.12
41 | U73C U100A U109C | 0.37
42 | U81A A94G U119C A129U | 0
43 | G48A U104C U108C | 1.28
44 | A42G U52C A92G | 0
45 | U62A A92G A129G | 0
46 | U13C U26C A140G | 1.6
47 | A30U A42G U109C A142G | 0.97
48 | C17U A67C A77U | 0.25

Row | Variant | self-cleavage
49 | C68U U115C A124G A129G U143C | 0.02
50 | U20G U26G A42U A138G A142C | 0.6
51 | U13A A67G C71U | 0.11
52 | U14C U15C U96A | 0.11
53 | U46C A59G A64U A67G A94G C111U | 0
54 | A24C G55A A65G G70A C118G | 0.05
55 | U13C U14C G48A U62G C133U | 0.15
56 | U12C U23C G74A C98U A107G A142G | 0.39
57 | C56G A77U U87C U102C | 0.09
58 | G36C A50U U52A | 0.43
59 | A30G U46A U134C | 1.08
60 | A65G G74A U108C | 0.01
61 | U104A U132C U143C | 1.84
62 | G75A C110U A138U | 1.13
63 | U45C A64C U73A A129U U134A | 0.1
64 | G10A U15C A42U U81C A94G | 0
65 | A22G A65G U115A C128G | 0.22
66 | U26C U62C U87A C110U | 0.08
67 | U52C A67G U104C | 0
68 | A50G A59G U73A | 0.11
69 | U52A A59G A64U A77G U87C | 0.17
70 | U13C U39A U112C | 0.76
71 | A50G A117C A129G | 1.13
72 | A69G U104C U119A | 0.67

Row | Variant | self-cleavage
73 | A22U U52A U108C U115A | 1.98
74 | U5C U13C U115A | 0.35
75 | G8A U9C U47C C56A U62C | 0.13
76 | U29C G54A A67U U134A A138G | 0.08
77 | A43G C84A A94U U119C A140G | 0.01
78 | A22U G35U U132A A142U | 1.56
79 | U12G U102A A124G | 1.47
80 | U1C A64G U81C A129U A138U | 0.19
81 | U14G G53U A67U A78G | 0.17
82 | A22U A24G A78G | 0.72
83 | U52A G54A C103A U130C | 0.34
84 | A22G A67G A78G C128U A140G | 0.49
85 | A77G U85C U109A G125A A138G | 0.19
86 | U9A U29C U62C A124U A129G | 0
87 | A59G U91C U132C | 0
88 | U13C A65G U81A | 0.35
89 | U15C A69C U102A | 0.12
90 | U14C U26C U45G G83U U85A | 0
91 | U13C U132C A140G | 1.08
92 | U87A U96A U104C | 0.1
93 | U20C U47A A129U | 1.58
94 | U26G U29A U132C | 1.4
95 | U15C A65G U108C | 0.14
96 | C19G C84A U143A | 0.19

Row | Variant | self-cleavage
97 | C3U A50G U115A | 1.18
98 | U1G C3U U13C | 0.63
99 | A77U G89A U100C U109A | 0.1
100 | U9C A22G U45A U73A | 1
101 | G21A U96C A136G | 0.38
102 | A2G U14C C76U G105A U130C A142G | 1.48
103 | U12G A77G A107G C110A U132A | 0.29
104 | G8U G41A G58A | 0.08
105 | G36U U39A U45C | 1.09
106 | U14C U29C C76U U132C | 1.57
107 | U26G U96C U112A | 0.42
108 | U12C G25A U96C | 0.19
109 | A67G U73C U143A | 0.5
110 | U23A A79G U115C | 0.8
111 | U87A U134A A136C | 0.06
112 | U46C G60A U132C A142G | 0.01
113 | A57U A94C U102C G127A U134A | 0.03
114 | U5A A24G U39C A64G | 0
115 | U26C U115C A140C | 1.69
116 | A117U U134C A140U | 1.33
117 | U46A A50U U104C A141G | 0.65
118 | U20A G36C C68A | 0.02
119 | A6G A64G A94G | 0.61
120 | U62C A67G A78U A79U | 0

Row | Variant | self-cleavage
121 | U81A U112G A138G | 2.34
122 | U46A U47C A59G | 0.16
123 | A31C A67G A140U | 0.37
124 | A30G U39A U46A | 0.94
125 | G75A G114U C120U | 0.41
126 | U9A U23C A43G | 0.89
127 | G7A U9A U119A A124G | 0.21
128 | U15A U52A U96C | 0.16
129 | G74A C103A A129G | 0.8
130 | U9C U29A A117G | 1.17
131 | U26C U132C A141G | 0.71
132 | U9A U52A G83A U102C U132C | 0.96
133 | A30G U52A C118U | 2.06
134 | C28U G41U U134C | 1.59
135 | A57G G126A A141U U143A | 1.21
136 | U5A G33U A65G G86A U100A U143A | 0.01
137 | U12A A24U U46C A64G U81A A138U | 0.92
138 | A43G U96A A121U | 0.02
139 | A64U A107G C111U | 0.21
140 | G7A U96C A107G | 0.05
141 | A42G U45C A117U U119C | 1.84
142 | G82A U102A A107G | 1.83
143 | U52C U62C U102C U143A | 0
144 | U13C A69G G93A | 0.14

Row | Variant | self-cleavage
145 | U13C U26C U45C | 1.15
146 | U15C U96C G126A | 0.27
147 | U13C A69G A92G C116U | 0.12
148 | U100A U108C U119A | 0.99
149 | U20A U47C A64G C95U A117U | 0
150 | U13C U47A A57G U134C | 1.25
151 | U73C A78G A107G | 0
152 | U39C A65C G80A U112C | 0
153 | U20C A64G U112C | 0.16
154 | U13C U134A A138G | 1.7
155 | A42U U62A A94U A117G G126C | 0
156 | U13C U62C U108C | 0.11
157 | A22U G27A A64G G82U A94G A129G | 0.05
158 | G7A U26C G33A U45A A69G A94G | 0.19
159 | A77U U96C A138U A140U | 0
160 | U12C U102A U132C | 2.44
161 | U13C U20C G33C G86A U109C G144U | 0.07
162 | U20A U23C A64G U143A | 0.34
163 | U39C A78G G126C | 1.09
164 | U13C U15A G34A A129G | 1.66
165 | U73C C123U G125A U132A A140G | 2.28
166 | U47A G75C G114A | 0.35
167 | A42G U52C A64G | 0
